# Results as given in the supplement of paper PMC11417369.
# The other results are listed elsewhere or left out.
# Test system: PfSIP2 AP2 domain 1 (GST-tagged)
# Assay: gcPBM binding intensity (ln(normalized median fluorescence intensity)); higher = stronger DNA binding
# Procedure, shortened: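 Using an Agilent 4 × 180k array, primer-extended double-stranded 36-bp intergenic genomic probes and negative controls were exposed for 1 h to GST-fused P. falciparum DNA-binding domains expressed in E. coli. Binding was carried out in 1× PBS with 1% milk, 0.2 mg/ml BSA, 0.5% salmon testes DNA and 0.03% Triton X-100, and protein was detected with Alexa488 anti-GST antibody and a 488 nm scan. Binding intensity is the highest Masliner-normalised natural-log median intensity across replicate spots of either probe orientation.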
row,Sequence,gcPBM binding intensity (ln)
1,TATTTACATTTTAGTAGTACATATATGTATATATAT [XGTACX_site6839],7.66
2,TCGTAATAATAGTTGAGTACGCACTAATATGTCAAT [XGTACX_site643],7.62
3,AGATAAAATATATATGCACACACATATATATTTCAT [CACACA_site9183],7.13
4,TAATTATTTAAAAAGAGTACATTTTTTTTTTTTTTT [XGTACX_site1060],7.29
5,ATAATTATTTAATATATATATATTATTTCGAATGTT [GTGCAC_negctrl_site688],7.03
6,TTAATAATTAATATATGTACTGATAAATAACATATA [XGTACX_site3966],6.85
7,ATTCTATATAAATATACACACATATATAAAATACAT [CACACA_site2293],7.13
8,TGTTTGTAATTATGTATGCACTTTTTTGTATGTGTG [GTGCAC_site9668],8.83
9,ACATATCTATCGTTTTTAATTGTATATTATTATAAC [TGCATGCA_negctrl_site144],7
10,TCTTGTATATGTTAAAGTACACAACAATATATATAT [XGTACX_site6814],8.9
11,AGAAAAAAACAACATGCACACGCACCCACAAAAAAA [CACACA_site7908],10.2
12,ATATTCTTGTTTAATACACACTGTAGTATTATATAT [CACACA_site4400],7.17
13,TAATGAGCGCTTGTAGTGCATTATATTCAAAAATAT,7.92
14,TCCCACTGTTATATTGAAAAAAAAAAAAAAAAAAAA [TGCATGCA_negctrl_site288],7.28
15,AAAAAAAAAAAACACACACACACAAATATATAAAAA [CACACA_site1171],7.16
16,TTTGAAAAAAATTAATGTACATTTGAAATGACATAT [XGTACX_site3902],6.76
17,GTATAAAAGTTATATACACACAACAGAATTACATAT [CACACA_site6212],7.17
18,ATACCTTCTTTTATGTTTAATTAATATACTTTTTAT [CACACA_negctrl_site1557],7.44
19,AATACATACATACATACACACATATAAATATATTAT [CACACA_site7650],7.23

row,Sequence,gcPBM binding intensity (ln)
1,TTTGCCCAAAAAGGTACACACCACAATGTACATAAA [CACACA_site4599],7.14
2,TCATATATGGGTAGTATACACACTGTATATTTAGGA [CACACA_site2844],6.89
3,TTTTATTTAAATACACGTACATAATGTATATATATA [XGTACX_site7160],8.14
4,GAACATTTCACACAAAAAAAAAAAAATATATATATA [TGCATGCA_negctrl_site518],8.85
5,TCTTTTTAAATATATACACACCGTGTCTACAGATAC [CACACA_site5784],6.99
6,ACATGATGTCATAAATGTACGCACACATACATAAAC [XGTACX_site1198],7.26
7,TACTAATATAATAAAAGTACTTAAATAAATATATGT [XGTACX_site2220],7.26
8,ATGTATATATATATATGTACTAATTAGTAGTTTACG [XGTACX_site6272],7.32
9,TGTATGTATAAAAACGCATGTATGTATTTTACAATA [TGCATGCA_site767],6.7
10,GATATTTTTTTCGAAAGTACAAAAAAAAATATTTCC [XGTACX_site4389],7.01
11,AAAATTAAAAATAACACACACATATATATATTTATA [CACACA_site2776],6.9
12,ATATATATACCAAGTAGTACATTCTACAACTAATGT [XGTACX_site8653],7.43
13,TACTAAGAATTAATATAACAAAATAAAAAAAAAAAA [XGTACX_negctrl_site346],6.79
14,ATACAGATATATAATACACACATAAATGTAACATTT [CACACA_site5864],7.09
15,TAGATACATACACGCACACACATATATATATATATA [CACACA_site12],9.72
16,CCACATTAAAAAAAAACACACATATATTATAGATAT [CACACA_site6662],6.93
17,AATGTACGTTTTATAACACACACACTAATAAAAAAA [CACACA_site9286],7.2
18,ATCTTCAAAAATATTAGTACACATGTATCATGAATT [XGTACX_site3872],7.16
19,TTTATTTGTAACGGTTGTACTTGTATATCATTATGA [XGTACX_site4281],7.14

row,Sequence,gcPBM binding intensity (ln)
1,TAGTGATATAATTATGTGCACTTAATACAGGTCGAT,10.1
2,CACTAAAATAGACACACACACACACGGATATAAATA [CACACA_site7873],7.06
3,CTTAAATTTAAGTTCACACATATTGGTCATTTATAT [CACACA_site5006],6.83
4,GATGTTCATCACTACACACACAAAGAAATATAAATA [CACACA_site7294],6.9
5,TACCCAAAGTTACATACACACTAATATTTACACCAT [CACACA_site4709],7.01
6,ATATGAAGTTATATAGTGCACATGTACAACCAAATC [GTGCAC_site9974],10.4
7,TTCTATATATATATAGACAAACGATAAAATAAAAAA [GTGCAC_negctrl_site142],7.09
8,TAATAATAGTGAGAGTGTACTTTAAATAAAATATAT [XGTACX_site2850],6.85
9,AGAAAAGAAATTAGTTGTACTCTGATGAATTATCCT [XGTACX_site6284],6.79
10,TACAATTTGATATATACACACAAATAAATTATGCTT [CACACA_site6534],6.93
11,AAAAGTACAATATATATGTATGTGTATAGAATGGTT [TGCATGCA_negctrl_site76],7.33
12,ATAATATTATACTTTGCACACATCTGAAATGACATA [CACACA_site3952],7.28
13,TTTGATAAAATTGATATCCTATAATTATATAAATAA [GTGCAC_negctrl_site317],6.81
14,AAAAAACAGACATACACACACACACCCATATATATA [CACACA_site3392],7.34
15,GATAAAATAAAAGTGGGTACTTAAATATATATATAA [XGTACX_site8457],6.99
16,AAAGAATTTAAATATTGTACGCAATATATAAAAAAA [XGTACX_site7616],6.93
17,TAATATTATTATTTTACACACTTTTTTCCTTTTATC [CACACA_site2457],6.84
18,ATTCTATATTTAAATGCATGCACTTTCTATTTTTTT [TGCATGCA_site435],9.29
